Data: PubChem BioAssay AID463173 (ICCB-Longwood Screening Facility, Harvard Medical School, 2010)
The whole screen tested about 52,000 compounds, of which about 1,700 (3.3%) were called active. Cut-off read from the data, not from the text of the source: active = survival mostly below about 52% (no sharp cut-off); inactive = mostly above about 56%. The list shows a part of the results.

test system: Wild type; assay: S. aureus survival, RN4220 and DeltatarO strains – OD600, teichoic acid synthesis inhibitors, primary screen (AID 463173); details: S. aureus RN4220 wild type/DeltatarO growth, OD600, 18 h, hits give low values, screened at 18.75 µg/mL (by protocol)

Compound	survival
COC(=O)c1scc(-c2ccccc2)c1S(=O)(=O)Nc1cccc(C)c1C	inactive: 100%
CCCCOc1ccc(C(=O)N(Cc2ccc(C(C)C)cc2)C2CCS(=O)(=O)C2)cc1 (stereo unspecified)	inactive: 54%
O=C(c1ccccc1Cl)n1nc(-c2cccnc2)nc1NCc1ccc(F)cc1	inactive: 84%
Cc1cc(C)c(NC(=O)CCc2c(C)nc3c(c(C)nn3C(C)(C)C)c2C)c(C)c1	inactive: 72%
CCOC(=O)c1ccc(NC(=O)CCc2c(C)nc3nc[nH]n3c2=O)cc1	inactive: 89%
O=C(Oc1ccc2c(c1)OCO2)c1cccc(S(=O)(=O)N2CCCC2)c1	inactive: 105%
COc1ccc(N2CCN(C3=NS(=O)(=O)C(c4cccc(Br)c4)=C3C)CC2)cc1	inactive: 89%
COc1ccc(C2=NN(CC(=O)NCCCN(C)c3ccccc3)C(=O)CC2)cc1	inactive: 135%
COC(=O)c1cc2sc(C)cc2n1Cc1ccc(Br)cc1F	inactive: 76%
COc1ccc(NC(=O)c2nc3nc(C)cc(C(F)F)n3n2)c(C)c1	inactive: 83%
COCCNC(=O)C(=O)NCC(c1cccnc1)N1CCN(c2ccccc2F)CC1 (stereo unspecified)	inactive: 87%
Cc1ccc2oc3c(c(=O)c2c1)C(c1ccc(F)cc1)N(c1nc(C)c(C)s1)C3=O (stereo unspecified)	inactive: 138%
COc1ccc(C2CC(=O)Nc3c2c(=O)[nH]c2nc4ccccc4n32)cc1OC (stereo unspecified)	inactive: 171%
COc1ccccc1Nc1nc2ccc(Cl)cc2nc1-n1nc(C)cc1C	inactive: 138%
CCOC(=O)c1cccc(NC(=O)C2CCN(S(=O)(=O)c3cn(C)cn3)CC2)c1	inactive: 75%
Cc1ccc(C)c(NS(=O)(=O)c2cc3c(cc2Cl)NC(=O)CO3)c1	inactive: 76%
CCOC(=O)c1ccc(NC(=O)CC2C(=O)N(c3ccc(F)cc3)C(=O)N2Cc2ccc3c(c2)OCO3)cc1 (stereo unspecified)	inactive: 111%
COCCCNc1ncnc2c1cnn2-c1ccc(F)cc1	inactive: 82%
CCc1ccc(NC(=O)N2CC(C)Oc3ccc(C)cc32)cc1 (stereo unspecified)	inactive: 110%

Compound	survival
CNC(=S)N(Cc1ccco1)Cc1cc2cc(C)ccc2n2nnnc12	inactive: 115%
CC(C)(C)OC(=O)N1CCC(c2c(C(=O)NCCN3CCC(Cc4ccccc4)CC3)cnn2-c2ccccc2)CC1	inactive: 74%
CN1C(=O)c2ccc(NC3=NS(=O)(=O)c4ccccc43)cc2C1=O	inactive: 117%
COc1cc2ccccc2cc1C(=O)Nc1ccc2oc(-c3cccc(Cl)c3Cl)nc2c1	inactive: 71%
CS(=O)(=O)N(CC(=O)N1CCCC1)c1ccc2c(c1)OCO2	inactive: 95%
COc1ccc(-n2cc(-c3ccccc3)nc2SCC(=O)Nc2ccccc2)cc1Cl	inactive: 71%
CCCn1c(NCc2ccccc2C)nc2ccccc21	inactive: 95%
O=C(CCn1[nH]c(=O)c2ccccc2c1=O)OC1CCCCC1	inactive: 100%
O=c1[nH]nc2c3c(cccc13)-c1ccccc1-2	inactive: 104%
CCc1ccc(S(=O)(=O)c2nnn3c2nc(N2CCCC2)c2sccc23)cc1	inactive: 111%
COc1ccc(-c2cc(C(F)(F)F)n3nc(C(=O)Nc4cccc(Cl)c4C)cc3n2)cc1	inactive: 79%
CCOC(=O)c1ccc(NC(=O)Cn2cnc(S(=O)(=O)N3CCCC3)c2)cc1	inactive: 67%
COc1ccc(-n2nc3c(N4CCCC(C(=O)NCCc5ccc(C)cc5)C4)nnc(C)c3c2C)cc1 (stereo unspecified)	inactive: 68%
Cc1ccccc1C1C=C(c2ccc(Cl)cc2)Nc2nnnn21 (stereo unspecified)	inactive: 84%
Cc1nn(-c2ccc(N3CCCCC3)nn2)c(C)c1CCC(=O)NCc1ccccc1F	inactive: 91%
CN1C(=O)Cc2cc(S(=O)(=O)CCC(=O)N3CCN(c4ccccc4F)CC3)ccc21	inactive: 117%
CCSc1ncc(Cl)c(C(=O)Nc2c(C(=O)Nc3ccc(Cl)cc3)oc3ccccc23)n1	inactive: 115%
O=C(c1ccc2c(c1)N(Cc1ccccc1)C(=O)c1ccccc1S2(=O)=O)N1CCN(c2ccccn2)CC1	inactive: 82%
CCOc1ccc(OCC)c(NC(=O)CCc2c(C)nc3c(c2C)c(=O)n(C)c(=O)n3C)c1	inactive: 70%

Compound	survival
CCOc1ccccc1CNC(=O)c1cc(-c2ccc(OC)cc2)nc2ccc(C(C)C)cc12	inactive: 65%
COc1cc(C2c3c(oc4ccccc4c3=O)C(=O)N2c2nnc(C(C)C)s2)cc(OC)c1OC (stereo unspecified)	inactive: 67%
CCOC(=O)c1cccc(NS(=O)(=O)c2cn(C)c(C)n2)c1	inactive: 73%
COc1ccc(CNC(=O)c2ccc3c(c2)nc2n3CCCCC2)c(OC)c1	inactive: 82%
COC(=O)c1ccccc1NC(=O)Cn1c(=O)n(-c2ccc(Cl)cc2)c(=O)c2c(C)c(C)sc21	inactive: 76%
COc1ccc(/C=C/c2noc(-c3ccccc3O)n2)cc1OC	inactive: 136%
Cc1ccc(Cn2ccn(Cc3ccccc3C)c(=O)c2=O)cc1	inactive: 91%
COc1ccc(C(=O)N2CCc3cc(OC)c(OC)cc3C2COc2ccc3c(C)cc(=O)oc3c2)c(OC)c1 (stereo unspecified)	inactive: 73%
COc1cccc(-c2cc(C(=O)Nc3ccc(C)cc3)[nH]n2)c1	inactive: 66%
Cc1ccc(CN2CCN(CC(=O)NCc3ccccc3Cl)C2=O)cc1	inactive: 80%
Cc1cc(C)cc(-n2nnc(-c3nc(-c4ccccc4F)no3)c2C)c1	inactive: 71%
COc1cc(NS(=O)(=O)c2ccc3c(c2)CCCN3C(C)=O)cc(OC)c1OC	inactive: 70%
Cc1cc(C)n(-c2nc3ccccc3nc2Nc2cc(C(=O)O)ccc2C)n1	inactive: 68%
CCOc1ccccc1NC(=O)CN1C(=O)C2(SCC(=O)N2c2cccc(F)c2)c2ccccc21 (stereo unspecified)	inactive: 97%
Cc1c(Cl)cccc1NC(=O)CCn1nc(C)c2c(C)n(-c3ccccc3)nc2c1=O	inactive: 83%
O=C(Nc1ccc(F)c(Cl)c1)c1cc(S(=O)(=O)N2CCCc3ccccc32)ccc1F	inactive: 120%
COc1ccc(S(=O)(=O)N(CC(=O)NCc2ccc(C)cc2)c2ccc(Cl)cc2)cc1	inactive: 128%
Cc1ccc(NC(=O)C(=O)NCC(c2cccnc2)N2CCc3ccccc32)cc1Cl (stereo unspecified)	inactive: 96%
